Results on 89 molecules are retold here after PubChem BioAssay AID463173 (ICCB-Longwood Screening Facility, Harvard Medical School, 2010).

Out of some 52,000 compounds screened, about 1,700 (3.3%) were called active. No stated cut-off is given here; in the data, active means survival mostly below about 52% (no sharp cut-off); inactive means mostly above about 56%. The list shows a part of the results.

For this experiment, the system named is Wild type. Briefly: growth inhibition of S. aureus wild type versus tarO mutant, primary screen, teichoic acid synthesis inhibitors, RN4220, OD600 (AID 463173). As to conditions: S. aureus RN4220 wild type/DeltatarO growth, OD600, 18 h, stronger effect = lower value, screened at 18.75 µg/mL (by protocol).
Regarding `O=C(NCCc1ccc(F)cc1)C(=O)NCC(c1ccc2c(c1)OCO2)N1CCOCC1` (centres undefined), the survival is inactive: 88%.
With `Cc1ccc2nc(-c3c[nH]c4ccccc34)c(Nc3ccccc3)n2c1`, the survival is inactive: 87%.
Consider `CCCN1CCN(CC2=C(C(=O)OCC)C(c3ccc(OC(C)C)cc3)NC(=O)N2)CC1` (centres undefined), for which the survival is inactive: 72%.
Take `CCNc1nc(NCC)nc(NCCO)n1`: the survival is inactive: 98%.
To `CCOc1ccc(-c2nc(CSCC(=O)NCCc3ccc(OCC)c(OCC)c3)c(C)o2)cc1` belongs inactive: 91%; to `COc1ccccc1-c1c(C)nn2c(N3CCN(c4ccccc4)CC3)cc(C)nc12`, inactive: 70%; to `CSc1nc2c(sc3ccccc32)c(=O)n1Cc1ccc(C)cc1`, inactive: 72%.
Under `CCn1c(=O)c(=O)n(CC)c2cc(N3CCCCC3)c(NC(=O)c3ccccc3OC)cc21` stands inactive: 89%; under `COc1ccc(OC)c(CNC(=O)CN2N=C(c3ccc(Cl)cc3)CCC2=O)c1`, inactive: 80%; under `O=C(NCCc1ccc(Cl)cc1)C(=O)NCC(c1cccs1)S(=O)(=O)c1cccs1` (centres undefined), inactive: 84%.
For the molecule `CCCOC1(C(F)(F)F)NC(=O)N(c2cccc(Cl)c2)C1=O` (centres undefined), the survival is inactive: 91%.
Under `C=Cc1ccc(Cn2c(C(=O)O)c(CNC3CCCCC3)c3ccc(OC)cc32)cc1` stands inactive: 115%; under `COc1cccc(CNC(=O)C(=O)NCC(c2ccc3c(c2)OCO3)N2CCOCC2)c1` (centres undefined), inactive: 73%.
Under `O=C(CN(CCO)CCO)N(C1CCCCC1)C1CCCCC1` stands inactive: 95%.
For `O=C(Nc1ccc2nc(SCC(=O)N3CCOCC3)sc2c1)c1ccc(Br)cc1`, the survival was inactive: 95%.
Under `COc1ccc(C(=O)Nc2cc(-c3nc4ccccc4s3)ccc2OC)cc1` stands active: 5%; under `CCC(C)NC(=O)CSc1c2c(nc3cc(Cl)ccc13)CCCC2` (centres undefined), inactive: 82%; under `CCOc1ccc(NC(=O)CSc2nnc(CNC(=O)C34CC5CC(CC(C5)C3)C4)n2CC)cc1`, inactive: 123%.
To `CCOC(=O)c1ccccc1NC(=O)Nc1cc2c(cc1N1CCCC1)n(C)c(=O)n2C` belongs inactive: 124%.
Regarding `Cc1cc2oc(C(=O)Nc3cccc(-c4nc5ccccc5o4)c3)c(C)c2cc1C`, the survival is inactive: 84%.
To `COc1ccc(-n2nc3cc(C)c(NC(=O)Cc4ccc(Cl)cc4)cc3n2)cc1` belongs inactive: 73%.
To `CC(Oc1ccccc1)C(=O)Nc1ccccc1C(=O)OCc1cc(=O)n2nc(C(C)C)sc2n1` (centres undefined) belongs inactive: 68%; to `CCc1ccc(NC(=O)CSc2nc(-c3cccc(OC)c3)nc3c2Cc2c(CO)cnc(C)c2O3)cc1`, inactive: 85%; to `O=C(NCCc1ccccc1)c1ccc(Cn2c(SCc3ccccc3F)nc3cccnc32)cc1`, inactive: 79%.
Consider `O=C(CSc1nc(=O)n(Cc2ccncc2)c2c1CCC2)Nc1ccc(F)cc1F`, for which the survival was inactive: 80%.
In the case of `CCCN1CN=C(NS(=O)(=O)c2ccc(NC(C)=O)cc2)NC1`, the survival is inactive: 73%.
Under `COc1ccc(-c2noc(-c3ccc(N4CCN(c5ccccc5OC)CC4)c([N+](=O)[O-])c3)n2)cc1` stands inactive: 81%.
To `COc1cc(C(=O)N(Cc2ccc(N(C)C)cc2)CC2CCCO2)cc(OC)c1OC` (centres undefined) belongs inactive: 86%; to `CCCc1cc(=O)[nH]c(Nc2cc(C)cc(C)c2)n1`, inactive: 115%; to `Cc1c(C(=O)N(C)C)sc2c1c(=O)n(-c1ccc(Cl)c(Cl)c1)c(=O)n2CC(=O)N1CCCCC1C` (centres undefined), inactive: 65%.
To `CCCC12CN3CC(CCC)(CN(C1)C3c1ccc(OC(C)C)cc1)C2=O` (centres undefined) belongs inactive: 39%.
With `COc1cccc(Cn2c(C)c(CNC3CCCCC3)c(C(=O)O)c2C)c1`, the survival is inactive: 88%.
As for `O=C(O)c1ccc(N=NSCCO)cc1`, the survival was inactive: 108%.
Regarding `CCOc1ccc(NC(=O)CCCOc2cc(=O)n(C)c3ccccc23)cc1`, the survival was inactive: 71%.
Under `Clc1ccccc1CSc1nnc(C2CCNCC2)o1` stands inactive: 95%.
Under `COc1ccc(N2CCN(C(=O)CN3C(=O)COc4ccc(S(=O)(=O)N5CCC(C)CC5)cc43)CC2)cc1` stands inactive: 76%.
In the case of `O=C(CCn1nnc2ccccc21)N1CCC(O)(c2cccc(F)c2)CC1`, the survival is inactive: 104%.
With `COc1ccc(N2CC(NC(=O)C3CCCCC3)CC2=O)cc1OC` (centres undefined), the survival was inactive: 85%.
Under `O=C(c1cnc2c(c1)COc1ccc(Cl)cc1-2)c1ccccc1O` stands inactive: 131%; under `COc1ccc(NC(=O)c2oc3ccccc3c2NC(=O)Cc2coc3ccc(C)cc23)cc1`, inactive: 85%; under `Cc1ccc2nc(-c3ccc(C)o3)c(Nc3ccc4c(c3)OCCO4)n2c1`, active: 19%.
With `CCS(=O)(=O)c1oc(-c2ccc(F)cc2)nc1S(=O)(=O)c1ccccc1`, the survival was active: -1%.
Under `O=C(CSc1nc2ncccc2o1)Nc1cccc(C(F)(F)F)c1` stands active: -3%; under `Cc1ccc(S(=O)(=O)N2CCN(C(=O)c3c(C)nn(-c4ccccc4)c3Cl)CC2)cc1`, inactive: 102%; under `CCOc1cc(CNC(=O)c2ccc3nc(C(C)C)oc3c2)cc(OCC)c1OCC`, inactive: 60%.
Under `COc1ccc(OC)c(CNC(=O)c2ccc3c(c2)c(C)c(C)n3C)c1` stands inactive: 85%.
Under `CCCCN(CC)C(=O)c1nn(-c2ccc(OC)cc2)c(=O)c2c1c1ccccc1n2C` stands inactive: 90%; under `Cc1ccc(C)c(N2CCN(C(=O)c3cc4c(=O)oc5ccccc5c4s3)CC2)c1`, inactive: 76%; under `O=C(Cn1c(=O)n(-c2ccccc2)c(=O)c2ccc(C(=O)NCc3ccc4c(c3)OCO4)cc21)Nc1ccc(Br)cc1`, inactive: 74%.
In the case of `Cc1nc(SCC(=O)Nc2nsc(-c3ccc(C(C)(C)C)cc3)n2)c2c3c(sc2n1)CCCC3`, the survival is inactive: 92%.
To `COc1ccc(N2CCN(S(=O)(=O)CCNC(=O)Cc3ccc(OC)c(OC)c3)CC2)cc1` belongs inactive: 69%; to `CN(CCO)Cc1ccc2c(c1)OCO2`, inactive: 121%.
Turning to `CCN(C(=O)CSc1nc(-c2ccccc2)no1)c1ccccc1`, the survival was inactive: 85%.
Under `COc1ccc2c(c1)N(C)/C(=C1/SC(=Nc3ccc(C)cc3)N(C)C1=O)S2` stands inactive: 110%; under `CC(=O)Nc1ccc(Nc2c3c(c(C#N)c4nc5ccccc5n24)CCC3)cc1`, inactive: 100%; under `COC(=O)c1ccc(NC(=O)CCc2c(C)nc3c(c(C)nn3C(C)(C)C)c2C)cc1`, inactive: 83%.
For the molecule `O=S(=O)(Nc1ccc(-c2nc3ccccc3o2)cc1)c1ccccc1`, the survival was inactive: 94%.
Take `Cc1ccc2occ(-c3cc(-c4ccc(F)cc4)nc4c3COc3ccc(F)cc3-4)c(=O)c2c1`: the survival is inactive: 76%.
To `CCOc1cc(NS(=O)(=O)c2ccc(OC)cc2)c(OCC)cc1NC(=O)CC` belongs inactive: 97%; to `Cc1ccccc1CSc1nc(-c2cccc(F)c2)nc2c1Cc1c(CO)cnc(C)c1O2`, inactive: 85%; to `COc1ccc(OC)c(CNC(=O)c2nn(C)c3c2CS(=O)(=O)c2ccccc2-3)c1`, inactive: 81%.
Regarding `CN(C)C(=O)c1ccc2c(c1)N(CC(=O)NCc1ccccc1Cl)C(=O)C1CCCCN21` (centres undefined), the survival was inactive: 71%.
`CC1(C)OC2C(CO)OC(n3ncc(=O)[nH]c3=O)C2O1` (centres undefined): the survival is inactive: 100%.
Under `COc1ccc(Cn2nnnc2C(c2ccccn2)N2CCc3ccccc3C2)cc1` (centres undefined) stands inactive: 94%.
For `CC(=O)Nc1ccc(Nc2ncnc3c2cnn3C)cc1`, the survival is inactive: 78%.
To `CCOc1ccccc1CNC(=O)c1oc2c(c1C)-c1[nH]ncc1CC2` belongs inactive: 109%; to `CC1CCN(c2ncnc3c2c(-c2ccccc2)cn3-c2ccc(Br)cc2)CC1`, inactive: 72%; to `CCCN(CCC)C(=O)Cn1c(=O)n(CCCCCC(=O)NCc2ccc3c(c2)OCO3)c(=O)c2sccc21`, inactive: 90%.
To `Cc1ccc(C)n1-c1nnc(N2CCCC(C(=O)Nc3ccccc3Br)C2)s1` (centres undefined) belongs inactive: 117%; to `CCOC(=O)c1c(NC(=O)c2cc(OC)c(OC)c(OC)c2)sc2c1CCCC2`, inactive: 89%.
Regarding `O=C(CSc1nnc(-c2ccc(Cl)cc2)o1)c1ccc(Cl)cc1`, the survival was inactive: 115%.
To `O=C(CN1C(=O)C2(SCC(=O)N2c2cccc(Cl)c2)c2ccccc21)NCc1ccccc1` (centres undefined) belongs inactive: 102%; to `CC(C)(C)c1ccc(OCC(=O)NCC2(N3CCOCC3)CCCCC2)cc1`, inactive: 105%.
Turning to `COc1ccc(NC(=O)CCCn2c(=O)c3cccn3c3cccnc32)cc1Cl`, the survival was inactive: 86%.
Consider `COc1ccc(-c2cn3nc(N4CCC(C(=O)Nc5cc(Cl)ccc5C)CC4)sc3n2)cc1`, for which the survival was inactive: 77%.
On to `COc1ccccc1-c1cc2nc(C)c(CCC(=O)NCCc3cccc(C)c3)c(C)n2n1`, for which the survival was inactive: 74%.
For the molecule `Cc1ccc(NC(=O)Cn2cnc3onc(-c4ccc(F)cc4)c3c2=O)c(Cl)c1`, the survival is inactive: 105%.
Take `Cc1ccc(NC(=O)c2cc3ccccn3n2)cc1F`: the survival was inactive: 88%.
To `O=C(CCCCCn1c(=O)c2sccc2n(CC(=O)Nc2cc(C(F)(F)F)ccc2Cl)c1=O)NCc1ccccc1Cl` belongs inactive: 74%; to `CCc1cccc(-n2c(=O)c3cccnc3n2CC(=O)NCc2ccc(C)cc2)c1`, inactive: 85%.
Under `C#CCN1CCc2cc(OC)c(OC)cc2C1C` (centres undefined) stands inactive: 104%; under `Cc1cccc(CC(=O)Nc2ccc3nc(N4CCC(C)CC4)cc(C)c3c2)c1`, inactive: 44%.
Regarding `Cc1ccc(Cl)cc1N1CCN(C(=O)CSc2cc(=O)n(C)c3ccccc23)CC1`, the survival was inactive: 64%.
To `CC1=C(C(=O)Nc2cc(Cl)ccc2C)C(c2sccc2C)n2ncnc2N1` (centres undefined) belongs inactive: 47%; to `CC(Oc1ccc(Cl)cc1Cl)C(=O)NNc1nc(Cl)nc(N(C)C)n1` (centres undefined), inactive: 107%.
Under `C=CCn1c(NC(=O)CC)nc2ccccc21` stands inactive: 90%.
With `O=C(Nc1nc2ccc(F)cc2s1)c1nc(S(=O)(=O)Cc2ccccc2F)ncc1Cl`, the survival was inactive: 87%.
As for `Cc1cc(C)c(NC(=O)Cn2c(=O)n(CCC(=O)NCc3ccccc3Cl)c(=O)c3sccc32)c(C)c1`, the survival was inactive: 104%.
Under `CC(C)(C)c1ccc2c(c1)N(CC(=O)NCCCN1CCN(c3ccccc3F)CC1)C(=O)CO2` stands inactive: 81%.
